Laboratory results from the RNAGym collection of RNA variant scans (doi:10.1093/nar/gkz1192).
Read counts are not given, so values of variants with three or more changes are uncertain.

B1: CPEB3 Ribozyme (parent)
chain: UAACAGGGGGCCACAGCAGAAGCGUUCACGUCGCAGCCCCUGUCAGAUUCUGGUGAAUCUGCGAAUUCUGCUGUAUAUCUC

Variants of: B1
Assay: self-cleavage, relative activity (ratio to wild type); higher = more cleavage; in vitro, sequencing
Method in brief: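 For each CPEB3 ribozyme variant, relative activity is its cleaved/total read fraction divided by the unmutated ribozyme's. Barcoded error-prone PCR libraries were transcribed by T7 RNA polymerase (5 hours, 37°C) and held in DNase I for 15 min before an EDTA stop, with cleavage occurring throughout. Template-switching reverse transcription and Illumina sequencing were used to read the RNAs. A 5-read minimum applied, and results are the mean of three batches.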

Variant | self-cleavage
UAGCGGGGGGCCACUGCAGAAGCGUUCACGUCGCAGCCCCUGUCAGAUCCUGGUGAAUCUGCGAAUUCUGCUGUUUAUCAC [A3G A5G A15U U49C A75U U80A] | 0.12
UAGCGGGGGGCCUCCGCAGAAGCGUUCACGUCGCAGCCCCUGUCAGAUUCUGGUGUAUCUGCGAGUUCUGCUGUAUAUCUC [A3G A5G A13U A15C A56U A65G] | 0.26
UAGCGGGGGGCCAUAGCAGAAGCGUACACGUCGCAGCCCCUGUCAGAUUCUGGUGAAUCUGCGAAUUCUGCUGUACAUCUC [A3G A5G C14U U26A U76C] | 0.33
UAGCGGGGGGCCACAGCAGAAGCGUUCACGUCGCAGCCCCUGUCAGAUUCUGGUGAAUCUGCGAAUUCCGCUGUACAUCAC [A3G A5G U69C U76C U80A] | 0.27
UACCAGGGGGCCACAGCAGAAGCGUUCACGUCGCAGCCCCUGUCAGAUUCAGGUUAACCUGCGGAUUCUGCUGUAUAUCUC [A3C U51A G55U U58C A64G] | 0.23
UAGCGGGGGCCCACAGCAGGAGCGUUCACGUCGCAGCCCCUGUCAGAUUCUGGUGAAUCUGCGAUUUCUGCUGUAUAUCUC [A3G A5G G10C A20G A65U] | 0.49
UAGCUGGGGGCCACGGCAGAAGCGUUCUCGUCGCAGCCCCUGUCAGAUCCUGGUGAAUCUGCGAGUUCUGCUGUAUAUCUC [A3G A5U A15G A28U U49C A65G] | 0.49
UACCAGGGGGCCACAUCAGAAGCGUUCACGUCGCAGCCCCUGUCGGAUUCUGGUGAAUCUGCGAAUUCUGCUGUGUAUCUC [A3C G16U A45G A75G] | 0.28
UACCAGGGGGCCACAGCAAAAGCGUUCACGUCGCAGCCCCUGUCAGACUCUGGUGAAUCUGCGAAUUCUGCUGUAUAUCAC [A3C G19A U48C U80A] | 0.44
UAGCGGGGGGCUACAGCAGAAGCGUUCACGUCGCAGCCCCUGUCAGAUUCUGGUGAAUCUGCGAAUUCUGCUGUAUAUCUC [A3G A5G C12U] | 0.95
UAGCUGGGGGCCACAGCGGAAGCGAUCACGUCGCAGCCCCUGUCAGAUUCUGGUGAGUCUGCGAAUUCUGCCGUAUAUCUC [A3G A5U A18G U25A A57G U72C] | 0.06
UAGCGGGGGGCCACAGCAGAAGCGUUCACGUCGCUGCCCCUGUCAGGUUCUGGUGAAUCUGCGAAUUCUGCUGUAUAUCUC [A3G A5G A35U A47G] | 0.21
UAGCUGGGGGCCACAGCGGAAGCGUUCACGUCGCAGCCCCUGUCAGAUUCUGGUGAAUAUGCGAAUUCUGCUGUAAAUCUC [A3G A5U A18G C59A U76A] | 0.1
UAGCGGGGGGCCACAGCGGAAGCGUUCACGUCGCGGCCCCUGUCAGAUUCUGGUGAAUCUGCGAAUUCUGCCGUAUUUCAC [A3G A5G A18G A35G U72C A77U U80A] | 1.02
UAGCGGGGGGCCACAGCAGAAGCAUCCACGUCGCAGCCCCUGUCAGACUCUGGUGAAUCCGCGAAUUCUGCUGUACAUCUC [A3G A5G G24A U26C U48C U60C U76C] | 0.06
UACCAGGGGGCCACAGCAGAAGCGUUCACGUCGCAGCCCCUGCCAGAUUCUGGUGAAUCCGCGAAUUCUGCUGUAUAUCUC [A3C U43C U60C] | 0.04
UAGCGAGGGGCCACUGCAGAAGCGUUCACGUCGCGGCCCCUGUCAGAUUCUGGUGAAUCUGCGAAUUCUGCCGUAUACCUC [A3G A5G G6A A15U A35G U72C U78C] | 0.7

Variant | self-cleavage
UAGCUGGGGGCCACAGCAGAAGCGUUCGCGUCACAGCCCCUGUCAGAUCCUGGUGAAUCUGCGAAUUCUGCUGUAUAUCUC [A3G A5U A28G G33A U49C] | 0.48
UACCAGGGGGCCACAGCAGAAGCGUCCACGUCGCUGCCCCUGUCAGAUGCUGGUGAAUCUGCGAAUCCUGCUGUAUAUCUC [A3C U26C A35U U49G U67C] | 0.05
UACCAGGGGGCCACAGCAGAAGCGUUCACGUCGCAGCCCCUGUCAGAUUCUGGUGAAUCUGCGAAUUCAGCUGUACAUCUC [A3C U69A U76C] | 1.09
UAGCGGGGGGCCACAGCAGAAGCGUUCACGUCGCAGCCCCUGUCAGGUUCUGGUGACUCUGCGAAUUCUGCAGUAUAUCUC [A3G A5G A47G A57C U72A] | 0.38
UAGCGGGGGGGCACAGCAGAAGCGUUCACGUCGCAGCCCCUGUCAGAUUCUGGUGAAUCUGCGAAUGCUGCCGUAUAUCUC [A3G A5G C11G U67G U72C] | 0.1
UAGCUGGGGGCCACAGCAGAAGCGUUCACGUCGCAGCCCCUGUCGGAUUCUGGUGAAUCUGCGAAUUCUGCUGUAUAUCUC [A3G A5U A45G] | 0.85
UAGCGGGGGGCCACAGCAGAGGCGUCCACGUCGCAGCCCCUGUCAGACUCUGGUGAAUCUGCGAAUUCUGCUGUAUAUCUC [A3G A5G A21G U26C U48C] | 0.29
UACCAGGGGGCCACAGCAGAAGCGUUCACGUCGCAGCCCCUGUCAGAUUCUGGCGAAUCUGCGUCUUCUGCUGUUUAUCUC [A3C U54C A64U A65C A75U] | 0.18
UAGCCGGGGGGCACAGCAGAAGCGUUCACGUCGCAGCCCCUGUCAGAUUCUGGUGGAUCUGCGAAUUCAGCUGUAAAUCUC [A3G A5C C11G A56G U69A U76A] | 0.41
UAGCGGGGGGCCACAGCAGAAGCGUUCUCGACGCAGCCCCUGUCAGCUUCUGGUGAAUCCGCGAAUUCUGCUGUAUAUCUC [A3G A5G A28U U31A A47C U60C] | 0.24
UACCAGGGGGCCACAGCAGAAGCGAUCACGUCGCAGCCCCUGUCAGAUUCUGGUGGGUCUGCGAAUUCUGCUGUAUAUCUC [A3C U25A A56G A57G] | 0.11
UACCAGGGGGCCACAGCAGAAGCGUUCACGCCGCGGCCCCUGUCAGAUACCGGUAAAUCUGCGAAUUCUGCUGUAUAUCUC [A3C U31C A35G U49A U51C G55A] | 1.23
UAGCGGGGGGCCACGGCAGAAGCGUUCACGUCGCGGCCCCUGUCAGAUUCUGGUGAAUCUGCGAAUUCUGCUGUAUAUCUC [A3G A5G A15G A35G] | 0.76
UAGCGGGGUGCCACAGCAGAAGCGUUCACGUCGCAGCCCCCGUCAGAUUCUGGUGAAUCUGCGAAUUCUGCUGUAUACCAC [A3G A5G G9U U41C U78C U80A] | 0.56
UAGCGGGGGGCCACAGCAGAAGCGUUCCCGUUGCAGCCCCUGUCAGAUUCUGGUGAAUCUGCGAAUUCUGCUGUAUAUCUC [A3G A5G A28C C32U] | 0.11
UAGCCGGGGGCCACGGCAGAAGCGUUCACGUCGCAGCCCCUGUCAGAUUCUGGUGAAUCUGCGGAUUCUGCUGUAUAUCUC [A3G A5C A15G A64G] | 0.74
UACCAGGGGGCCACAGCAGAAGCGUUCACGUCGCAGCCCCUGUCAGAUUCUGGUGAAUCUGCGAAUGCUGCUGUAAAUCUC [A3C U67G U76A] | 0.71
